# Experimental data published in publication PMC4336329 (PLoS ONE, 2015).
# In all, about 310,000 compounds went through this assay and about 14,000 (4.5%) showed an effect of 50% or more. Effects have a minus sign here. The list shows a part of the results.
# Target: human ether-à-go-go-related gene (hERG) potassium channel (human, UniProt Q12809)
# Test: primary screen, population patch clamp on CHO cells stably expressing hERG
# 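Further: peak tail current of the secondary pulse compared with the same well before compound.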
# Chain of human ether-à-go-go-related gene (hERG) potassium channel (Q12809 whole entry, looked up): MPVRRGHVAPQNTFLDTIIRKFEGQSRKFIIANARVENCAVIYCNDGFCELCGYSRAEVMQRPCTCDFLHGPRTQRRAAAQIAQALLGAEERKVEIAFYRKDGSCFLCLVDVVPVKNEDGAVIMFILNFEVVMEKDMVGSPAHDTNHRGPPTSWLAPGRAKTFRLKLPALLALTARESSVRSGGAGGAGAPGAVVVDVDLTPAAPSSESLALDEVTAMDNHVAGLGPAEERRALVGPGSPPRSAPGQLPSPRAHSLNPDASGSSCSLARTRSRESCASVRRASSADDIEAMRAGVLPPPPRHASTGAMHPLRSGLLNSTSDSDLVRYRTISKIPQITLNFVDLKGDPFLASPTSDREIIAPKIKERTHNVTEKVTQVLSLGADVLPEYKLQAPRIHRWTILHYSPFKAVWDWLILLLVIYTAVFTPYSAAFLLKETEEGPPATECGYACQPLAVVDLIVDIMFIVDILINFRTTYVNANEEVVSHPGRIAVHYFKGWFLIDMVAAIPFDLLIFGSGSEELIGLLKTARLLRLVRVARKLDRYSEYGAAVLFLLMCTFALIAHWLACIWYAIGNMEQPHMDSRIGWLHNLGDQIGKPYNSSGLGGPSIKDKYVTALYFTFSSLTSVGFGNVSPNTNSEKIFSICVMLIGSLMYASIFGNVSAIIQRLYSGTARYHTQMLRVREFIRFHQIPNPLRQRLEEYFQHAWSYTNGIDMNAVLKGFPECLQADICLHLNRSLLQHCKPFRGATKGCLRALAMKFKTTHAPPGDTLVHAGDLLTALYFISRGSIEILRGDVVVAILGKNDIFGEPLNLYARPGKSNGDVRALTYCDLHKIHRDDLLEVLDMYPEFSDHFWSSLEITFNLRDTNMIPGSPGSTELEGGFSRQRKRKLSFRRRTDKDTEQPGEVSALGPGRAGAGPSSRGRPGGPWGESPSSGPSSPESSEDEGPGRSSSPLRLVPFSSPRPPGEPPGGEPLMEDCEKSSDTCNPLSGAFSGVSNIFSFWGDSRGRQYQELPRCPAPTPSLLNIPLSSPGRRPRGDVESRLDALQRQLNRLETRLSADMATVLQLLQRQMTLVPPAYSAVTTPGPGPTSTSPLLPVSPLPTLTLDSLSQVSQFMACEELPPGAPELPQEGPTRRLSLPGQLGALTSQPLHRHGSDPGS
row,Structure (SMILES),"hERG current change (%, negative = inhibition) at 10uM [%]"
1,N#CCCn1cc(C(=O)Nc2ccc(C(=O)O)cc2)c(-c2cccc(Br)c2)n1,22
2,COc1ccc(Cl)cc1NC(=O)COC(=O)CCc1cc(OC)c(OC)c(OC)c1,6.7
3,Cc1nn(CC(=O)N(C)Cc2ccc(F)cc2)c(C)c1[N+](=O)[O-],-10.4
4,Cc1cnc(CN(C)C(=O)c2ccc3oc(Cc4ccc(Cl)cc4)nc3c2)[nH]1,-44.2
5,O=C(CSc1nnnn1C1CCCC1)c1ccc2c(c1)OCCO2,16.6
6,CCCCn1c(Nc2ccc(OC)cc2)nc2ccccc21,15.1
7,Cc1ccc(-c2cc(C(=O)N/N=C\c3cnn(C)c3C)c3ccccc3n2)cc1C,-4.44
8,O=C(CSc1nnnn1-c1ccccc1)Nc1nsc(-c2ccc(Cl)cc2)n1,-1.4
9,O=C(c1ccc(S(=O)(=O)N2CCOCC2)cc1)N(c1cccc(Cl)c1)C1C=CS(=O)(=O)C1 (stereo not drawn),-8.81
10,CCCCNC(=O)Cc1ccc(C)cc1,28.7
11,O=C(Nc1cccc(Cl)c1)N(CCN1CCOCC1)Cc1ccccc1F,-49.6
12,N#Cc1nc(-c2ccco2)oc1N1CCN(C(c2ccccc2)c2ccccc2)CC1,-0.82
13,Cc1ccc(N(C(=O)c2snc(C(N)=O)c2N)C(C(=O)NCCC(C)C)c2ccco2)cc1 (stereo not drawn),-10.9
14,CCN(CC(=O)Nc1cc(Cl)ccc1C)C(=O)c1cc([N+](=O)[O-])ccc1N1CCOCC1,-18.5
15,CC(C)(C)c1cc(C(=O)NN)n(Cc2ccc(F)cc2)n1,-5.6
16,COc1cccc(CNS(=O)(=O)c2ccc3c(c2)CC(C)N3C(=O)C2CC2)c1 (stereo not drawn),18.5
17,CCCCNC(=S)NCCN1CCCCC1.O=C(O)C(=O)O,-21.1
18,C=CCCN(C1CCCC1)S(=O)(=O)c1ccccc1Br,4.52
19,Cc1ccc(CC(=O)O/N=C(\N)c2ccccn2)cc1,-5.06
20,CCCN1C2CCCC1CC(NC(=O)c1ccccc1)C2 (stereo not drawn),-18.9
21,Cc1cc(C)c2ccc(/C=N/O)nc2c1O,6.06
22,COc1ccccc1C(=O)NC(=O)COC(=O)CNC(=O)c1ccc(Cl)cc1Cl,15.2
23,COC(=O)c1ccccc1Nc1ccnc(Cl)n1,3.31
24,C=CCNC(=S)Nc1ccc(C)c(S(=O)(=O)N2CCCCC2)c1,-18.2
